Experimental data as given in the supplement of paper PMC9446081.
About 220 (0.56%) of roughly 39,000 compounds showed activity. The list shows a part of the results.

Test system: Escherichia coli K-12 BW25113
Test: relative growth (OD600 normalised to plate interquartile mean) (fraction); higher = less growth inhibition, active = 0.2 or less
Settings: 50 µM; LB; incubation time: overnight (16-24 h)
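Note: static incubation at 37 °C against the wild-type strain, values averaged over two biological replicates.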

Structure (SMILES) | relative growth
CC(C)NC(=O)Nc1ccc2c(c1)C(=O)N(C)[C@H]1CC[C@@H](CC(=O)NCc3ccc(F)cc3)O[C@H]1CO2 | inactive: 1.02
NCCCC[C@H](N)C(=O)O | inactive: 1.01
CC(O)Cn1cnc2c1c(=O)n(C)c(=O)n2C (stereo unspecified) | inactive: 0.951
C[C@H](NC(=O)N(C)C[C@H]1OCc2ccccc2-c2c(n(C)c3ccccc23)C(=O)N([C@H](C)CO)C[C@@H]1C)c1ccccc1 | inactive: 0.989
C[C@H](CO)N1C[C@H](C)[C@@H](CN(C)C(=O)C2CCCCC2)OCCCC[C@H](C)Oc2ccc(NC(=O)Nc3ccc(F)cc3)cc2C1=O | inactive: 1.04
Cc1noc(C)c1S(=O)(=O)Nc1ccc2c(c1)C(=O)N([C@H](C)CO)C[C@H](C)[C@H](CN(C)Cc1ccc3c(c1)OCO3)O2 | inactive: 0.967
COc1ccc(NC(=O)N2C[C@H](O)COC[C@H]3O[C@H](CC(=O)NC4Cc5ccccc5C4)CC[C@@H]32)cc1 | inactive: 1.01
C[C@@H]1CN([C@@H](C)CO)C(=O)c2cc(NS(=O)(=O)c3cn(C)cn3)ccc2O[C@@H](C)CCCCO[C@@H]1CN(C)C(=O)Nc1ccc(C(F)(F)F)cc1 | inactive: 0.923
CO[C@H](C(=O)N(C)C[C@H]1OCc2ccccc2-c2c(n(C)c3ccccc23)C(=O)N([C@H](C)CO)C[C@@H]1C)c1ccccc1 | inactive: 0.974
Cc1noc(C)c1S(=O)(=O)Nc1ccc2c(c1)C(=O)N([C@H](C)CO)C[C@@H](C)[C@@H](CN(C)S(=O)(=O)c1cccs1)O2 | inactive: 0.998
COc1ccc(NC(=O)Nc2ccc3c(c2)C(=O)N([C@H](C)CO)C[C@@H](C)[C@H](CN(C)Cc2ccc(-c4ccccc4)cc2)O3)cc1 | inactive: 0.999
C[C@@H]1CN([C@H](C)CO)C(=O)c2cccc(NC(=O)Nc3ccccc3)c2O[C@H]1CN(C)S(C)(=O)=O | inactive: 1.02
FC(F)(F)c1ccc(/C=N/c2cc(Cl)cc(Cl)c2)cc1 | inactive: 1.03
C[C@@H]1CN([C@H](C)CO)C(=O)c2cc(NC(=O)Cn3cnnn3)ccc2O[C@@H]1CN(C)S(=O)(=O)c1cn(C)cn1 | inactive: 1.01
COc1ccc(NC(=O)N(C)C[C@H]2OCCCC[C@H](C)Oc3ccc(NS(=O)(=O)c4ccc(C)cc4)cc3C(=O)N([C@@H](C)CO)C[C@@H]2C)cc1 | inactive: 0.954
COc1cccc(NC(=O)N(C)C[C@@H]2OCc3ccccc3-c3c(n(C)c4ccccc34)C(=O)N([C@@H](C)CO)C[C@H]2C)c1 | inactive: 1
C[C@@H]1CN([C@H](C)CO)S(=O)(=O)c2ccc(C#CCN(C)C)cc2O[C@H]1CN(C)Cc1ccccc1F | inactive: 0.995
COc1ccc(NC(=O)Nc2ccc3c(c2)C(=O)N([C@@H](C)CO)C[C@@H](C)[C@H](CN(C)Cc2ccc4c(c2)OCO4)OCCCC[C@H](C)O3)cc1 | inactive: 0.979
COc1cccc(S(=O)(=O)N(C)C[C@@H]2OCc3cnnn3CCCC(=O)N([C@@H](C)CO)C[C@@H]2C)c1 | inactive: 1.02
C[C@@H]1CN([C@@H](C)CO)C(=O)c2cccc(NS(=O)(=O)c3ccc(Cl)cc3)c2O[C@@H]1CN(C)S(=O)(=O)c1cn(C)cn1 | inactive: 1.04
COCC(=O)N(C)C[C@H]1Oc2cc(C#CC(C)(C)O)ccc2S(=O)(=O)N([C@@H](C)CO)C[C@H]1C | inactive: 1.01

Structure (SMILES) | relative growth
COC(=O)C(CC#Cc1ccc2c(c1)[C@]1(C(=O)N2)[C@H](c2ccc(O)cc2)N2[C@H](c3ccccc3)[C@H](c3ccccc3)OC(=O)[C@H]2[C@@H]1C(=O)N1CCc2cc(OC)c(OC)cc2C1)C(=O)OC | inactive: 1.01
C1CCC(C(C[C@H]2CCCCN2)C2CCCCC2)CC1 | inactive: 0.935
CC(C)NC(=O)N(C)C[C@@H]1Oc2ccc(NS(=O)(=O)c3ccc(Cl)cc3)cc2C(=O)N([C@@H](C)CO)C[C@H]1C | inactive: 0.988
C[C@@H]1CCCCO[C@H](CN(C)C(=O)NC2CCCCC2)[C@H](C)CN([C@@H](C)CO)C(=O)c2cc(NC(=O)Nc3ccc(F)cc3)ccc2O1 | inactive: 1.01
Cc1noc(C)c1NC(=O)Nc1ccc2c(c1)C(=O)N([C@@H](C)CO)C[C@@H](C)[C@@H](CN(C)S(C)(=O)=O)O2 | inactive: 0.946
CC(C)c1nc(CN(C)C(=O)N[C@H](C(=O)N[C@@H](Cc2ccccc2)C[C@H](O)[C@H](Cc2ccccc2)NC(=O)OCc2cncs2)C(C)C)cs1 | inactive: 1.05
C[C@@H]1CN([C@H](C)CO)C(=O)Cc2cc(NC(=O)c3ccncc3)ccc2O[C@@H]1CN(C)Cc1ccc2c(c1)OCO2 | inactive: 1
O=C(C[C@H]1CC[C@H]2[C@@H](COC[C@H](O)CN2C(=O)c2ccccc2F)O1)N1CCN(c2ccccc2)CC1 | inactive: 0.917
COc1ccc(NC(=O)N(C)C[C@@H]2Oc3c(NS(C)(=O)=O)cccc3C(=O)N([C@@H](C)CO)C[C@@H]2C)cc1 | inactive: 0.971
C[C@H](CO)N1C[C@H](C)[C@@H](CN(C)C(=O)Nc2ccccc2)OCCCC[C@H](C)Oc2ccc(NS(=O)(=O)c3cccs3)cc2C1=O | inactive: 1.02
C[C@@H]1CN([C@@H](C)CO)C(=O)c2cc(NS(=O)(=O)c3cn(C)cn3)ccc2O[C@H]1CN(C)C(=O)NC1CCCCC1 | inactive: 1.01
COc1ccc(S(=O)(=O)Nc2ccc3c(c2)CC(=O)N([C@H](C)CO)C[C@H](C)[C@@H](CN(C)S(=O)(=O)c2cn(C)cn2)O3)cc1 | inactive: 1.01
COc1ccccc1C#Cc1cnc2c(c1)C(=O)N([C@H](C)CO)C[C@H](C)[C@H](CN(C)C(=O)CC1CC1)O2 | inactive: 1.02
Cc1cc(O)c(C(=O)/C=C/N(C)C)c(=O)o1 | inactive: 0.976
C[C@@H]1CCCCO[C@@H](CN(C)S(=O)(=O)c2ccc(F)cc2)[C@H](C)CN([C@H](C)CO)C(=O)c2cc(NC(=O)NC3CCCCC3)ccc2O1 | inactive: 1.02
C[C@@H]1CN([C@@H](C)CO)S(=O)(=O)c2ccc(C#CC3(O)CCCC3)cc2O[C@H]1CN(C)C(=O)c1ccncc1 | inactive: 0.993
OCc1c[nH]c2ccccc12 | inactive: 1.1
C[C@@H]1CN([C@H](C)CO)C(=O)Cc2cc(NC(=O)Nc3cccc4ccccc34)ccc2O[C@H]1CN(C)C(=O)Nc1cccc2ccccc12 | inactive: 1.05
COc1ccccc1-c1cnc2c(c1)C(=O)N([C@H](C)CO)C[C@H](C)[C@H](CN(C)C(=O)c1ccncc1)O2 | inactive: 1.01
Cn1cnc(S(=O)(=O)N2C[C@H](O)COC[C@@H]3O[C@H](CC(=O)NC4Cc5ccccc5C4)CC[C@H]32)c1 | inactive: 0.988
O=C(C1=C(O)C(=O)N(c2nccs2)[C@H]1c1cccc(Oc2ccccc2)c1)c1ccc2c(c1)OCCO2 | inactive: 1.01

Structure (SMILES) | relative growth
COc1ccc(-c2coc3c(O)c(O)c(OC)cc3c2=O)cc1 | inactive: 1.07
CCCCOC(=O)[C@@H](N)CCC(=O)O | inactive: 0.976
C[C@@H]1CN([C@H](C)CO)C(=O)Cc2cc(NC(=O)NC3CCCCC3)ccc2O[C@H]1CN(C)C(=O)Nc1cccc2ccccc12 | inactive: 0.963
CCCCC[C@@H](O)C[C@@H](O)CC(=O)O[C@@H](CCCCC)C[C@@H](O)CC(=O)OC[C@@H](O)[C@@H](O)[C@@H](O)[C@@H](O)CO | inactive: 0.99
COCC(=O)Nc1ccc2c(c1)C(=O)N(C)C[C@@H](OC)[C@H](C)CN(Cc1ccccc1OC)[C@@H](C)CO2 | inactive: 1
C[C@@H]1CN([C@H](C)CO)S(=O)(=O)c2ccc(-c3cncnc3)cc2O[C@@H]1CN(C)C(=O)CN(C)C | inactive: 0.992
CN1CCSC1=N | inactive: 0.977
COC(=O)CC1C(C)(C)C(OC(C)=O)C2CC3=C4CC(=O)OC(c5ccoc5)C4(C)CCC3C1(C)C2=O (stereo unspecified) | inactive: 1.04
Cc1noc(C)c1S(=O)(=O)N(C)C[C@@H]1Oc2ccc(NS(=O)(=O)c3ccc(Cl)cc3)cc2CC(=O)N([C@@H](C)CO)C[C@H]1C | inactive: 0.997
N#C[C@H]1N[C@@H](CO)[C@@H]1c1ccccc1 | inactive: 1
Cc1noc(C)c1NC(=O)N(C)C[C@H]1Oc2ccc(NC(=O)Nc3ccc(C(F)(F)F)cc3)cc2C(=O)N([C@H](C)CO)C[C@H]1C | inactive: 0.979
C[C@@H]1CN([C@@H](C)CO)C(=O)c2cc(NC(=O)Nc3ccc(F)cc3)ccc2O[C@@H](C)CCCCO[C@@H]1CN(C)Cc1ccncc1 | inactive: 0.93
COCCNC(=O)C[C@@H]1C[C@H]2c3cc(NC(=O)CN(C)C)ccc3O[C@H]2[C@H](CO)O1 | inactive: 0.978
Cc1noc(C)c1NC(=O)Nc1ccc2c(c1)CC(=O)N([C@@H](C)CO)C[C@H](C)[C@@H](CN(C)C(=O)NC(C)C)O2 | inactive: 1.01
C[C@@H]1CN([C@@H](C)CO)C(=O)Cc2cc(NC(=O)CCCCCC(=O)Nc3ccccc3N)ccc2O[C@H]1CN(C)C(=O)Nc1ccc(C(F)(F)F)cc1 | inactive: 0.995
C[C@H](CO)N1C[C@H](C)[C@H](CN(C)C(=O)Cc2ccncc2)Oc2cc(C#CC3(O)CCCC3)ccc2S1(=O)=O | inactive: 0.971
C[C@@H](Cc1c[nH]c2ccccc12)NC(=O)CN | inactive: 0.997
Cc1noc(C)c1NC(=O)N(C)C[C@H]1OCCCC[C@@H](C)Oc2ccc(NC(=O)Nc3ccc(F)cc3)cc2C(=O)N([C@@H](C)CO)C[C@H]1C | inactive: 0.997
C[C@H](CO)N1C[C@H](C)[C@@H](CN(C)C(=O)NC2CCCC2)Oc2cc(-c3cccnc3)ccc2S1(=O)=O | inactive: 1
